Results from PubChem BioAssay AID624296 (National Center for Advancing Translational Sciences (NCATS), 2012).
Several values for one entry are separate records, joined by “and”; a condition that tells them apart may be missing. Equal values may be shown once. Among all 350,000 compounds or so, about 9,900 (2.8%) were called active. Inconclusive means that the source gave no clear call. Such entries were picked first, then a sample of the others. Calls follow the shape of the dose curve; as a rule, active = well fitted activation curve with a large enough effect; inconclusive = small, poorly fitted or top-dose-only effect; inactive = no such curve, though single readings can be large or run the other way. Where the call is inconclusive, the potency comes from a doubtful curve fit.

Assay: A quantitative high throughput screen for small molecules that induce DNA re-replication in MCF 10a normal breast cells. Also: nearly all actives have a fitted effect of over 50% in size.
Conditions: MCF 10A DNA re-replication, Hoechst nuclear intensity, 48 h; series mostly up to 46.1 µM
Potency is read from the fitted curve at half-maximal effect; tags tell the direction and shape of the fitted curve.

| SMILES | Potency |
| --- | --- |
| COc1cccc(C(=O)C2CCCN(C(=O)c3ccc(C#CC(C)(C)O)cc3)C2)c1 (centres undefined) | inactive |
| CC(=O)Nc1ccc(C(=O)N/N=C/c2cc(Br)cc(Br)c2O)cc1 | inconclusive: 18.4 µM [activator, single point] |
| COc1cc(NS(C)(=O)=O)ccc1Nc1c2ccccc2nc2ccccc12 | inconclusive: 33.5 µM [activator, single point] and inconclusive: 10.3 µM [activator, partial curve, poor fit] |
| Cc1ccc(NC2=C(Cl)C(=O)OC2OC(=O)c2ccco2)cc1C (centres undefined) | inconclusive: 25.9 µM [activator, single point] |
| CS(=O)(=O)Nc1ccc(C2=NN(C(=O)C3CCCCC3)C(c3cccs3)C2)cc1 (centres undefined) | inconclusive: 20.6 µM [activator, partial curve] |
| N#Cc1nc(-c2ccc(Cl)cc2)oc1NCC1CCCO1 (centres undefined) | inconclusive: 29.1 µM [activator, single point] |
| COc1ccc2[nH]cc(CCNC(=O)c3ccc4ccccc4n3)c2c1 | active: 14.6 µM |
| S=c1[nH]nc(-c2cc(-c3ccccc3)n[nH]2)n1/N=C/c1c2ccccc2cc2ccccc12 | inconclusive: 16.4 µM [activator, partial curve] |
| N#Cc1ccc(OS(=O)(=O)c2ccc(-c3ccon3)s2)cc1 | inconclusive: 25.9 µM [activator, partial curve, poor fit] |
| CCOC(=O)C(C#N)(Cc1cc(OC)cc(OC)c1)Cc1cc(OC)cc(OC)c1 | inactive |
| Cc1cccc(OCC(=O)NCC(=O)N/N=C/c2cc(Br)ccc2OCc2ccccc2)c1 | inactive |
| CN(C(=S)NC(=O)c1ccc(F)cc1)C1CCCCC1 | inactive |
| COC(=O)c1ccc2ccn(CC(=O)NC3CCCCC3)c2c1 | inconclusive: 29.1 µM [activator, single point] |
| CC(=O)Nc1ccc(Nc2nc(-c3c(C)nc4ccccn34)cs2)cc1 | inconclusive: 1.16 µM [activator, full curve, poor fit] |
| COc1cc(C2c3c([nH]c(=O)[nH]c3=O)Nc3ccc4ccccc4c32)cc(OC)c1OC (centres undefined) | inactive |
| c1ccc(CSc2ncn[nH]2)nc1 | inconclusive: 6.51 µM [activator, single point] |
| CC(C)CCn1c(=O)c2ccccc2n2c(CCl)nnc12 | inconclusive: 29.1 µM [activator, single point] |
| Cc1cc(C)c(C)c(S(=O)(=O)N2CCC(C(=O)OCC(=O)NC3CCS(=O)(=O)C3)CC2)c1C (centres undefined) | inactive |
| CCOCCCn1c(=N)c(C(=O)NCc2ccc3c(c2)OCO3)cc2c(=O)n3cccc(C)c3nc21 | inconclusive: 23.1 µM [activator, partial curve, poor fit] |
